Patent publication US20100173832A1, “ANTICANCEROUS POLYMERIC AGENTS” (TECHNION RESEARCH & DEVELOPMENT FOUNDATION LTD., priority 2007, published 2010)
Part of at least one peptide drawing is inferred or uncertain, most often the ends. For part of these data: At least one compound was matched to its structure with a doubt left. Non-standard residues stand in square brackets, D forms with d. Residues, ends and D or L forms follow the SMILES beside them. *: point of attachment. Lauroyl = CCCCCCCCCCCC(=O)*; 12Ado = NCCCCCCCCCCCC(=O)O; Aoc = NCCCCCCCC(=O)O

Columns and labels:
[1] = tested on: N-417 cell line; experiment: XTT cell viability assay, N-417 cells; type: cell-based; conditions: human small-cell lung carcinoma N-417 cells
Description: Variant small cell lung cancer cells (N-417, SCLC);
(§1) As a routine cancer cell killing assay for assessment of antitumor activity, 2,3-bis(2-methoxy-4-nitro-5-sulfophenyl)-2H-tetrazolium-5-carboxanilide inner salt (XTT) reduction assay was used, utilizing a commercial kit such as, for example, Cell Proliferation XTT Kit, Cat. No. 20-300-1000, Biological Industries Ltd., Kibbutz Beit Haemek, Israel. XTT is a tetrazolium salt which is cleaved to formazan colored compounds by the mitochondrial dehydrogenase enzymes indicating proper mitochondrial activity in intact cells.
(§2) Thereafter, a series of increasing concentrations of the polymers were added. After another 24 hours of incubation, XTT reaction solution was added (50 μl of XTT per 100 μl of cell culture medium). The optical density of the cells was measured at 450 nm by ELISA plate reader after 2-4 hours XTT incubation. Cell viability was determined relative to a control having no polymer added thereto.
“Human breast cancer MCF-7” represents the lethal concentration in μM as measured against MCF-7 cell line, measured as described hereinabove in the cell proliferation XTT assay (column 6 in Table 3); “Human small-cell lung carcinoma N-417” represents the lethal concentration in μM as measured against N-417 cell line, measured as described hereinabove in the cell proliferation XTT assay (column 7 in Table 3);

[2] = Hydrophobicity by reverse-phase HPLC (% acetonitrile at elution); type: physicochemical; conditions: for Hydrophobicity (% ACN): percent acetonitrile at elution, C18 reverse-phase HPLC gradient
[3] = tested on: MCF-7 cell line; type: cell-based; conditions: human breast adenocarcinoma MCF-7 cells, XTT assay
[4] = tested on: TRAMP-C2 cell line; type: cell-based; conditions: mouse prostate cancer TRAMP-C2 cells, XTT assay
Description: Transgenic adenocarcinoma mouse prostate cells (TRAMP-C2);
as §1, §2
“Mouse prostate cancer TRAMP-C2” represents the lethal concentration in μM as measured against TRAMP-C2 cell line, measured as described hereinabove in the cell proliferation XTT assay (column 5 in Table 3);

For `NCCCC[C@H](NC(=O)CCCCCCCCCCCNC(=O)[C@H](CCCCN)NC(=O)[C@H](CCCCN)NC(=O)CCCCCCCCCCCNC(=O)[C@@H](N)CCCCN)C(N)=O` [(KNC12K)2NH2] (HELM PEPTIDE1{K.[O=C(CCCCCCCCCCCN[*:1])[*:2]].K.K.[O=C(CCCCCCCCCCCN[*:1])[*:2]].K.[am]}$$$$V2.0), the N-417 lethal concentration [1] was >16 µM, the “ACN (%) (percent of acetonitrile in the HPLC-RP gradient mobile phase at which the polymer was eluted; estimated hydrophobicity)” value [2] was 38.1% and the “Hydrophobicity (% ACN)” value [2] was 38.1 % ACN. The MCF-7 lethal concentration [3] was >16 µM and the TRAMP-C2 lethal concentration [4] was >16 µM.
With `NCCCC[C@H](NC(=O)CCCCCCCCCCCNC(=O)[C@H](CCCCN)NC(=O)[C@H](CCCCN)NC(=O)CCCCCCCCCCCNC(=O)[C@H](CCCCN)NC(=O)[C@H](CCCCN)NC(=O)CCCCCCCCCCCNC(=O)[C@@H](N)CCCCN)C(N)=O` [(KNC12K)3NH2] (H-K[12Ado]KK[12Ado]KK[12Ado]K-NH2) the N-417 lethal concentration [1] was >16 µM, the “ACN (%) (percent of acetonitrile in the HPLC-RP gradient mobile phase at which the polymer was eluted; estimated hydrophobicity)” value [2] was 38.9% and the “Hydrophobicity (% ACN)” value [2] was 38.9 % ACN. For the same molecule, the MCF-7 lethal concentration [3] was >16 µM and the TRAMP-C2 lethal concentration [4] was >16 µM.
In the case of `NCCCCCCCCCCCC(=O)N[C@@H](CCCCN)C(=O)NCCCCCCCCCCCC(=O)N[C@@H](CCCCN)C(=O)NCCCCCCCCCCCC(=O)N[C@@H](CCCCN)C(N)=O` [(NC12K)3NH2], the N-417 lethal concentration [1] was >16 µM and the “ACN (%) (percent of acetonitrile in the HPLC-RP gradient mobile phase at which the polymer was eluted; estimated hydrophobicity)” value [2] was 44.3%.
In the case of `CCCCCCCCCCCC(=O)N[C@@H](CCCCN)C(=O)NCCCCCCCC(=O)N[C@@H](CCCCN)C(=O)N[C@@H](CCCCN)C(=O)NCCCCCCCC(=O)N[C@@H](CCCCN)C(N)=O` [C12(KNC8K)2NH2] (Lauroyl-K[Aoc]KK[Aoc]K-NH2), the N-417 lethal concentration [1] was >16 µM, the “ACN (%) (percent of acetonitrile in the HPLC-RP gradient mobile phase at which the polymer was eluted; estimated hydrophobicity)” value [2] was 48.3% and the MCF-7 lethal concentration [3] was >16 µM. For the same molecule, the TRAMP-C2 lethal concentration [4] was >16 µM.
For `CCCCCCCCCCCC(=O)N[C@@H](CCCCN)C(=O)NCCCCCCCC(=O)N[C@@H](CCCCN)C(=O)N[C@@H](CCCCN)C(=O)NCCCCCCCC(=O)N[C@@H](CCCCN)C(=O)N[C@@H](CCCCN)C(=O)NCCCCCCCC(=O)N[C@@H](CCCCN)C(N)=O` [C12(KNC8K)3NH2] (Lauroyl-K[Aoc]KK[Aoc]KK[Aoc]K-NH2), the N-417 lethal concentration [1] was >16 µM, the “ACN (%) (percent of acetonitrile in the HPLC-RP gradient mobile phase at which the polymer was eluted; estimated hydrophobicity)” value [2] was 46.8% and the MCF-7 lethal concentration [3] was >16 µM. For the same molecule, the TRAMP-C2 lethal concentration [4] was >16 µM.
For `CCCCCCCCCCCC(=O)N[C@@H](CCCCN)C(=O)NCCCCCCCC(=O)N[C@@H](CCCCN)C(N)=O` [C12(KNC8K)NH2], the N-417 lethal concentration [1] was >16 µM, the MCF-7 lethal concentration [3] was >16 µM and the TRAMP-C2 lethal concentration [4] was >16 µM.
With `CCCCCCCCCCCC(=O)N[C@@H](CCCCN)C(=O)NCCCCCCCCCCCC(=O)N[C@@H](CCCCN)C(=O)NCCCCCCCCCCCC(=O)N[C@@H](CCCCN)C(=O)NCCCCCCCCCCCC(=O)N[C@@H](CCCCN)C(=O)NCCCCCCCCCCCC(=O)N[C@@H](CCCCN)C(N)=O` [C12K(NC12K)4NH2] the N-417 lethal concentration [1] was >16 µM, the “ACN (%) (percent of acetonitrile in the HPLC-RP gradient mobile phase at which the polymer was eluted; estimated hydrophobicity)” value [2] was 53.4% and the MCF-7 lethal concentration [3] was 7.3 ± 0.3 µM.
For `NCCCC[C@@H]1NC(=O)CCCCCCCCCCCNC(=O)[C@H](CCCCN)NC(=O)[C@H](CCCCN)NC(=O)CCCCCCCCCCCNC(=O)[C@H](CCCCN)NC1=O` [Cyclic-(KNC12K)2] (HELM PEPTIDE1{[O=C(CCCCCCCCCCCN[*:1])[*:2]].K.K.[O=C(CCCCCCCCCCCN[*:1])[*:2]].K.K}$PEPTIDE1,PEPTIDE1,1:R1-6:R2$$$V2.0), the “ACN (%) (percent of acetonitrile in the HPLC-RP gradient mobile phase at which the polymer was eluted; estimated hydrophobicity)” value [2] was 40.7%, the MCF-7 lethal concentration [3] was >16 µM and the TRAMP-C2 lethal concentration [4] was >16 µM.
For `NCCCC[C@@H]1NC(=O)CCCCCCCCCCCNC(=O)[C@H](CCCCN)NC(=O)[C@H](CCCCN)NC(=O)CCCCCCCCCCCNC(=O)[C@H](CCCCN)NC(=O)[C@H](CCCCN)NC(=O)CCCCCCCCCCCNC(=O)[C@H](CCCCN)NC1=O` [Cyclic-(KNC12K)3] (cyclo(K[12Ado]KK[12Ado]KK[12Ado]K)), the “ACN (%) (percent of acetonitrile in the HPLC-RP gradient mobile phase at which the polymer was eluted; estimated hydrophobicity)” value [2] was 41.7%, the MCF-7 lethal concentration [3] was >16 µM and the TRAMP-C2 lethal concentration [4] was >16 µM.
For `NCCCC[C@@H]1NC(=O)CCCCCCCCCCCNC(=O)[C@H](CCCCN)NC(=O)[C@H](CCCCN)NC(=O)CCCCCCCCCCCNC(=O)[C@H](CCCCN)NC(=O)[C@H](CCCCN)NC(=O)CCCCCCCCCCCNC1=O` [Cyclic-NC12K(KNC12K)2] (cyclo([12Ado]KK[12Ado]KK[12Ado]K)), the “ACN (%) (percent of acetonitrile in the HPLC-RP gradient mobile phase at which the polymer was eluted; estimated hydrophobicity)” value [2] was 43.1%, the MCF-7 lethal concentration [3] was >16 µM and the TRAMP-C2 lethal concentration [4] was >16 µM.
With `NCCCC[C@@H]1NC(=O)CCCCCCCCCCCNC(=O)[C@H](CCCCN)NC(=O)[C@H](CCCCN)NC(=O)CCCCCCCCCCCNC1=O` [Cyclic-NC12KKNC12K] (HELM PEPTIDE1{[O=C(CCCCCCCCCCCN[*:1])[*:2]].K.[O=C(CCCCCCCCCCCN[*:1])[*:2]].K.K}$PEPTIDE1,PEPTIDE1,1:R1-5:R2$$$V2.0) the “ACN (%) (percent of acetonitrile in the HPLC-RP gradient mobile phase at which the polymer was eluted; estimated hydrophobicity)” value [2] was 42.7%, the MCF-7 lethal concentration [3] was >16 µM and the TRAMP-C2 lethal concentration [4] was >16 µM.
With `NCCCC[C@H](NC(=O)CCCCCCCCCCCNC(=O)[C@H](CCCCN)NC(=O)CCCCCCCCCCCNC(=O)[C@H](CCCCN)NC(=O)CCCCCCCCCCCNC(=O)[C@H](CCCCN)NC(=O)CCCCCCCCCCCNC(=O)[C@@H](N)CCCCN)C(N)=O` [K(NC12K)4NH2] the N-417 lethal concentration [1] was 14.5 ± 0.7 µM, the “ACN (%) (percent of acetonitrile in the HPLC-RP gradient mobile phase at which the polymer was eluted; estimated hydrophobicity)” value [2] was 46% and the MCF-7 lethal concentration [3] was 11 ± 2.8 µM.
In the case of `NCCCC[C@H](NC(=O)CCCCCCCCCCCNC(=O)[C@H](CCCCN)NC(=O)CCCCCCCCCCCNC(=O)[C@H](CCCCN)NC(=O)CCCCCCCCCCCNC(=O)[C@H](CCCCN)NC(=O)CCCCCCCCCCCNC(=O)[C@H](CCCCN)NC(=O)CCCCCCCCCCCNC(=O)[C@H](CCCCN)NC(=O)CCCCCCCCCCCNC(=O)[C@@H](N)CCCCN)C(N)=O` [K(NC12K)6NH2], the “ACN (%) (percent of acetonitrile in the HPLC-RP gradient mobile phase at which the polymer was eluted; estimated hydrophobicity)” value [2] was 48%.
For `NCCCC[C@H](NC(=O)CCCCCCCCCCCNC(=O)[C@H](CCCCN)NC(=O)CCCCCCCCCCCNC(=O)[C@H](CCCCN)NC(=O)CCCCCCCCCCCNC(=O)[C@H](CCCCN)NC(=O)CCCCCCCCCCCNC(=O)[C@H](CCCCN)NC(=O)CCCCCCCCCCCNC(=O)[C@H](CCCCN)NC(=O)CCCCCCCCCCCNC(=O)[C@H](CCCCN)NC(=O)CCCCCCCCCCCNC(=O)[C@@H](N)CCCCN)C(N)=O` [K(NC12K)7NH2], the “ACN (%) (percent of acetonitrile in the HPLC-RP gradient mobile phase at which the polymer was eluted; estimated hydrophobicity)” value [2] was 50%.
For `NCCCC[C@H](NC(=O)CCCCCCCCCCCNC(=O)[C@H](CCCCN)NC(=O)[C@@H](N)CCCCN)C(N)=O` [KKNC12KNH2] (HELM PEPTIDE1{K.K.[O=C(CCCCCCCCCCCN[*:1])[*:2]].K.[am]}$$$$V2.0), the “Hydrophobicity (% ACN)” value [2] was 30.9 % ACN.
For `NCCCC[C@H](NC(=O)CCCCCCCCCCCNC(=O)[C@@H](N)CCCCN)C(N)=O` [KNC12KNH2], the “ACN (%) (percent of acetonitrile in the HPLC-RP gradient mobile phase at which the polymer was eluted; estimated hydrophobicity)” value [2] was 32%.
For `NCCCC[C@H](NC(=O)CCCCCCCCCCCNC(=O)[C@@H](N)CCCCN)C(=O)O` [KNC12K], the “ACN (%) (percent of acetonitrile in the HPLC-RP gradient mobile phase at which the polymer was eluted; estimated hydrophobicity)” value [2] was 33.2%.
In the case of `NCCCCCCCCCCCC(=O)N[C@@H](CCCCN)C(=O)NCCCCCCCCCCCC(=O)N[C@@H](CCCCN)C(=O)N[C@@H](CCCCN)C(=O)NCCCCCCCCCCCC(=O)N[C@@H](CCCCN)C(N)=O` [NC12(KNC12K)2NH2] (H-[12Ado]K[12Ado]KK[12Ado]K-NH2), the “Hydrophobicity (% ACN)” value [2] was 38.5 % ACN.
For `NCCCCCCCCCCCC(=O)N[C@@H](CCCCN)C(=O)NCCCCCCCCCCCC(=O)N[C@@H](CCCCN)C(=O)N[C@@H](CCCCN)C(=O)NCCCCCCCCCCCC(=O)N[C@@H](CCCCN)C(=O)N[C@@H](CCCCN)C(=O)NCCCCCCCCCCCC(=O)N[C@@H](CCCCN)C(N)=O` [NC12(KNC12K)3NH2] (H-[12Ado]K[12Ado]KK[12Ado]KK[12Ado]K-NH2), the “Hydrophobicity (% ACN)” value [2] was 40.5 % ACN.
In the case of `NCCCCCCCCCCCC(=O)N[C@@H](CCCCN)C(=O)N[C@@H](CCCCN)C(=O)NCCCCCCCCCCCC(=O)N[C@@H](CCCCN)C(=O)N[C@@H](CCCCN)C(=O)NCCCCCCCCCCCC(=O)N[C@@H](CCCCN)C(N)=O` [NC12K(KNC12K)2NH2] (H-[12Ado]KK[12Ado]KK[12Ado]K-NH2), the “ACN (%) (percent of acetonitrile in the HPLC-RP gradient mobile phase at which the polymer was eluted; estimated hydrophobicity)” value [2] was 38.6% and the “Hydrophobicity (% ACN)” value [2] was 38.6 % ACN.
In the case of `NCCCCCCCCCCCC(=O)N[C@@H](CCCCN)C(=O)N[C@@H](CCCCN)C(=O)NCCCCCCCCCCCC(=O)N[C@@H](CCCCN)C(N)=O` [NC12KKNC12KNH2] (HELM PEPTIDE1{[NCCCCCCCCCCCC(=O)[*:2]].K.K.[O=C(CCCCCCCCCCCN[*:1])[*:2]].K.[am]}$$$$V2.0), the “Hydrophobicity (% ACN)” value [2] was 38.9 % ACN.
